{"source": "ChEMBL document CHEMBL4888484", "about": "“Replenishing the malaria drug discovery pipeline: Screening and hit evaluation of the MMV Hit Generation Library 1 (HGL1) against asexual blood stage Plasmodium falciparum ,using a nano luciferase reporter read-out” (2022)", "note": "Hit rate of the full screen: of about 4,800 compounds, about 420 (8.8%) showed an effect of 50% or more. Some of the results follow.", "data": [{"tested_on": "Plasmodium falciparum", "experiment": "Confirmatory screen in NF54 nanoGlo assay, in single point, at 2uM, 72h", "format": "functional, Erythrocyte", "settings": "timepoint 72 hour", "units": {"% Inhibition": "%"}, "values": [{"smiles": "Cc1cc2nc(C)c(=O)n(Cc3ccc(C(=O)NCc4ccco4)cc3)c2cc1C", "% Inhibition": 1}, {"smiles": "CCOc1cc2c(cc1OC)[C@@H](N)CC2=O", "% Inhibition": 1}, {"smiles": "C[C@H]1CS(=O)(=O)N(c2ccc(C(=O)Nc3ccccc3Oc3ccccc3)c(Cl)c2)C1=O", "% Inhibition": -5}, {"smiles": "COc1ccccc1C(=O)NC1=NN2C(=NC(c3ccc(Cl)cc3)=C[C@H]2c2ccc(Cl)cc2)N1", "% Inhibition": 94}, {"smiles": "Cc1sc2ncnc(N3CCCCC3)c2c1C(=O)Nc1cc(F)ccc1Cl", "% Inhibition": 1}, {"smiles": "O=C(c1cccc2cc[nH]c12)N(CC1CC1)C1CC1", "% Inhibition": -4}, {"smiles": "CCn1c(=O)c(N2CCC[C@H](C(=O)NCc3ccccc3OC)C2)nc2cccnc21", "% Inhibition": -7}, {"smiles": "O=C1c2cnccc2[C@](O)(c2ccccc2)N1Cc1ccccc1", "% Inhibition": -16}, {"smiles": "Cc1ccsc1NC(=O)OC(C)(C)C", "% Inhibition": 1}, {"smiles": "CNc1nccc(OCc2ccccc2)n1", "% Inhibition": 0}, {"smiles": "COc1ccc(CC[C@H](C)NC(=O)NCCCN2CCCC2=O)cc1", "% Inhibition": 7}, {"smiles": "Cn1c(Cc2n[n+]3c(-c4ccccc4)cc(-c4ccccc4)nc3n2C)n[n+]2c(-c3ccccc3)cc(-c3ccccc3)nc12", "% Inhibition": 99}, {"smiles": "COc1ncnc2c1CN(C(=O)NCC1(Cc3ccccc3)CCC1)CC2", "% Inhibition": -14}, {"smiles": "O=C(Cc1ncc(C(F)(F)F)cc1Cl)c1ccc(Cl)cc1Cl", "% Inhibition": -6}, {"smiles": "CN1CCCN(c2ccc(NC(=O)c3nn(-c4ccccc4)c(=O)c4ccccc34)cc2F)CC1", "% Inhibition": 49}, {"smiles": "C=CCNCc1cccc(OC)c1OCC(=O)NC(C)(C)C", "% Inhibition": 2}, {"smiles": "COc1ccc(CN(c2ccc(C)cc2)S(=O)(=O)c2ccc3nnc(C)n3c2)cc1", "% Inhibition": -8}, {"smiles": "CC(C)c1nccn1CCC(=O)Nc1ncn(C2CCCCC2)n1", "% Inhibition": -9}, {"smiles": "c1ccc(Nc2nc(-c3ccccc3)cc(-c3ccccc3)n2)cc1", "% Inhibition": 3}, {"smiles": "Cc1cc(C)c(NC(=O)OCc2cccc3cccnc23)c(C)c1", "% Inhibition": 83}, {"smiles": "c1cc2c(cc1[C@H]1NCCCCCCO1)OCO2", "% Inhibition": -14}, {"smiles": "Cc1noc(C)c1C(=O)N[C@@H](CC(C)C)C(=O)OCc1ccccc1", "% Inhibition": -4}, {"smiles": "O=C1NC2(CCCCCCC2)C(=O)N1CN(C1CCCCC1)C1CC1", "% Inhibition": 0}, {"smiles": "CC(=O)NCC(=O)N(Cc1ccco1)C1(C(=O)NC2CCCCC2)CCCCC1", "% Inhibition": -4}, {"smiles": "CCN(CC)C(=O)c1cnc2snc(C)c2c1N1CCC(C(=O)Nc2c(C)cc(C)cc2C)CC1", "% Inhibition": 57}, {"smiles": "COc1ccc(C)cc1-n1ccc(C(=O)N2CCCc3c(C(N)=O)cccc32)n1", "% Inhibition": -11}, {"smiles": "O=C(C1CCC1)N1CCC[C@H]1c1nc(C2CCOCC2)no1", "% Inhibition": 4}, {"smiles": "O=C(CCNC(=O)C1CC1c1c(F)cccc1Cl)NC1CCS(=O)(=O)C1", "note": "(stereo not drawn)", "% Inhibition": -18}, {"smiles": "O=C(Nc1nncs1)NC(C1CC1)C1CC1", "% Inhibition": 0}, {"smiles": "NC(=NCCOc1ccc(Br)cc1)N1CCOCC1", "% Inhibition": 3}, {"smiles": "Cc1cc(NC(=O)c2ccccn2)n(-c2nc3ccccc3o2)n1", "% Inhibition": 88}, {"smiles": "Cc1ccnc(Nc2ccc(N3CCNCC3)nn2)c1", "% Inhibition": 36}, {"smiles": "O=C(NC1CC(c2ccccc2)C1)N1CCS(=O)(=O)CC1", "note": "(stereo not drawn)", "% Inhibition": -7}, {"smiles": "CCOC(=O)N1CCC(NC(=O)c2cn[nH]c2-c2ccc(OCC)c(Cl)c2)CC1", "% Inhibition": 2}, {"smiles": "O=C(Nc1ccccc1)N1CCc2scc[n+]2-c2ccccc21", "% Inhibition": -11}, {"smiles": "Cc1nc(-c2ccccc2)cc2nn(CC(=O)NC3CCCCC3)c(=O)n12", "% Inhibition": -13}, {"smiles": "Cc1ccc(NC(=O)CC(C)(C)CC2=Nc3ccccc3S(=O)(=O)N2)cc1F", "% Inhibition": -3}, {"smiles": "CS(=O)(=O)N1CCC(C(=O)Nc2c(C(N)=O)sc3nc(C(F)F)cc(C4CC4)c23)CC1", "% Inhibition": -2}, {"smiles": "O=C(Nc1ccc2c(c1)cc(C(=O)Nc1ccc(C(F)(F)F)cc1)n2Cc1cccc(F)c1)c1ccccc1Cl", "% Inhibition": -13}, {"smiles": "Cc1cc(C(=O)NCC(=O)NC(C)(C)C)no1", "% Inhibition": 7}, {"smiles": "NC(=O)c1nnn2c1C(=O)N[C@H](c1ccc(Cl)cc1)C2", "% Inhibition": -11}, {"smiles": "O=S1(=O)CCN(OCc2ccc(Cl)cc2)CC1", "% Inhibition": 3}, {"smiles": "O=C(c1cnc2ccc(F)cc2c1N1CCN(c2ccccn2)CC1)N1CCCC1", "% Inhibition": 1}, {"smiles": "CC(=O)c1cccc(NC(=O)[C@@]23CCC(=O)N2c2ccccc2C(=O)N3C)c1", "% Inhibition": 76}, {"smiles": "Cc1ccc([C@@H]2C=C(C(=O)O)Nc3c(C(N)=O)nnn32)cc1", "% Inhibition": -14}, {"smiles": "Cc1cc(C)c2nc(C)cc(Nc3ccc(O)cc3)c2c1", "% Inhibition": 87}, {"smiles": "CC(C)c1nc(C(=O)Nc2ccccc2CN2CCNC2=O)cs1", "% Inhibition": 3}, {"smiles": "CO/C(=N/C(=O)c1cccc(OC)c1)N[C@H]1CCCc2ccccc21", "% Inhibition": -7}, {"smiles": "CCOC(=O)COc1ccc(C)cc1-c1ccno1", "% Inhibition": -5}, {"smiles": "CCOc1ccc(CCN2C(=O)c3c(C(=O)OC)ncn3C[C@@]2(C)C(=O)NC2CCCCCC2)cc1", "% Inhibition": -3}, {"smiles": "O=C1CCC(Nc2ccc(Br)cn2)C(C2CC2)N1", "note": "(stereo not drawn)", "% Inhibition": 1}, {"smiles": "CCOC(=O)c1nc(-c2ccc(N(CC)CC)nc2)no1", "% Inhibition": 6}, {"smiles": "Cc1nnc2ccc(S(=O)(=O)N(Cc3ccccc3F)c3ccccc3)cn12", "% Inhibition": -16}, {"smiles": "COc1ccc(CC[C@@H]2NCCn3cccc32)cc1", "% Inhibition": -5}, {"smiles": "O=C(O)C1C2C=CC(C2)C1C(=O)Nc1cccc2ncccc12", "note": "(stereo not drawn)", "% Inhibition": 5}, {"smiles": "CC(=O)NC1CN(C(=O)Nc2ccc(C(C)C)c(F)c2)C1", "% Inhibition": -17}, {"smiles": "O=C(COc1ccccc1)Nc1ccc2c(c1)C(O)=Nc1cccnc1O2", "% Inhibition": 58}, {"smiles": "CCOC(=O)C(Cc1ccc(OCc2c(F)cccc2Cl)cc1)(NC(C)=O)C(=O)OCC", "% Inhibition": 2}, {"smiles": "Nc1cc(C(F)(F)F)c(Br)cc1Br", "% Inhibition": -16}, {"smiles": "Cc1ccc(Nc2[nH]nnc2C(=O)N[C@H]2CCc3ccccc32)cc1C", "% Inhibition": 2}, {"smiles": "O=C(Nc1nc(-c2cccc3ccccc23)cs1)c1c(Cl)cccc1Cl", "% Inhibition": -7}, {"smiles": "O=C(NCC(=O)N(C[C@H]1CCCO1)C1(C(=O)NC2CCCCC2)CCCCC1)c1ccccc1", "% Inhibition": 12}, {"smiles": "CC(=O)Nc1ncc(Br)cc1C", "% Inhibition": 3}, {"smiles": "CC(C)[C@@H]1CC[C@H](C)C[C@H]1OC(=O)Cn1cc(-c2ccc(Cl)cc2)[n+]2c1CCC2", "% Inhibition": 84}, {"smiles": "COc1ccc(-c2cnn3c(-c4ccccn4)ccnc23)cc1OC", "% Inhibition": -1}, {"smiles": "COC(=O)C(C)CN1CCCC(n2ccc(C(F)(F)F)n2)C1", "note": "(stereo not drawn)", "% Inhibition": -5}, {"smiles": "O=C(Nc1ccc2c(c1)c1cc(Br)ccc1n2Cc1ccccc1)c1ccccc1", "% Inhibition": 4}, {"smiles": "CC1CCC(C)(NC(=O)Nc2ccn(C(C)C)n2)CC1", "note": "(stereo not drawn)", "% Inhibition": -11}, {"smiles": "Cc1c(-c2nn(-c3ccccc3)c(-c3cnn(C)c3C)c2Cl)cnn1C", "% Inhibition": -4}, {"smiles": "O=C(Cc1c[nH]c2ccccc12)N1CCc2ccccc2C1", "% Inhibition": -8}, {"smiles": "COCc1nncn1C1CN(C(=O)CCc2ccccc2OC)C1", "% Inhibition": -13}, {"smiles": "Cc1cc(C(=O)Nc2ccc(Br)c(C)n2)no1", "% Inhibition": -12}, {"smiles": "Cc1nn(CC2(O)CCCCC2)c(=O)c(C#N)c1C", "% Inhibition": -3}, {"smiles": "Cc1cc(C)n2c(-c3ccccc3C)nnc2n1", "% Inhibition": 1}, {"smiles": "Cc1[nH]ncc1CCCNCc1cccc(O)c1", "% Inhibition": 0}, {"smiles": "COCCOC(=O)c1cc(C(F)(F)F)cc(C(=O)OCCOC)n1", "% Inhibition": -2}, {"smiles": "CCCc1cnc(NC(=O)c2cnn(C)c2C)s1", "% Inhibition": -8}, {"smiles": "O=C1NC(=O)[C@]2(CCOc3ccc(F)cc32)N1", "% Inhibition": -3}, {"smiles": "CC(C)CCn1c(=O)c2sccc2n(CC(=O)N(C)c2ccccc2)c1=O", "% Inhibition": 5}, {"smiles": "CC(C)=CCN1CC[C@]2(CCCO2)CCC1=O", "% Inhibition": 2}, {"smiles": "COC(=O)[C@](Nc1ccc(Oc2ccccc2)cc1)(c1cc(C)c(O)c(C)c1)C(F)(F)F", "% Inhibition": 4}, {"smiles": "Cc1ccccc1[C@H]1CCN(c2ccc(NC(=O)c3ccc(F)cc3)c(C(=O)O)c2)C1", "% Inhibition": -11}, {"smiles": "COc1ccc(N2CCN(C(=O)c3ccccc3Cl)[C@@H](C)C2=O)cc1OC", "% Inhibition": -11}, {"smiles": "O=S(=O)(c1ccc2c(c1)OCCO2)N1CCO[C@H](c2ccc(F)cc2)C1", "% Inhibition": -3}, {"smiles": "CN(C)c1ccc2c(c1)CN(C(=O)c1ccccc1S(C)(=O)=O)CC2", "% Inhibition": -14}, {"smiles": "Cc1cnn(CC(=O)N2CCC[C@@H]2CCc2ncc(C)n2CC2CC2)c1", "% Inhibition": -7}, {"smiles": "CCOc1cc(C(=O)Nc2ccc3nc4c(c(Nc5ccc(OC)c(OC)c5)c3c2)CCCC4)cc(OCC)c1OCC", "% Inhibition": 96}, {"smiles": "O=C(COc1ccccc1O)NC1CC1c1cccc(Cl)c1", "note": "(stereo not drawn)", "% Inhibition": 5}, {"smiles": "COc1ccc(C(=O)N2c3ncnn3C(c3ccccc3)CC2c2ccc(C)cc2)cc1OC", "note": "(stereo not drawn)", "% Inhibition": 78}, {"smiles": "Cc1cc(C(=O)N2CCN(C(=O)C(C)C)[C@@H]3CS(=O)(=O)C[C@@H]32)nc(C)n1", "% Inhibition": -10}, {"smiles": "CC1(C)C(=O)NCCN1C(=O)c1cccc2ccccc12", "% Inhibition": 5}, {"smiles": "OCC#Cc1ncc(C(F)(F)F)cc1Cl", "% Inhibition": -8}, {"smiles": "CC(C)c1cc(=O)n(Cc2ccccc2Cn2cnc(C(C)C)cc2=O)cn1", "% Inhibition": -3}, {"smiles": "O=C(CCc1ncc(-c2ccc(Cl)cc2Cl)o1)NC1(C(=O)O)CCCCC1", "% Inhibition": -8}, {"smiles": "Cc1ccc(CN2C(=O)[C@@H]3CCCN3c3ccc(C(F)(F)F)cc32)cc1", "% Inhibition": -17}, {"smiles": "Cc1cccc(-c2nc3nc(C)c(CC(=O)N4CCCCC4)c(C)n3n2)c1", "% Inhibition": 1}, {"smiles": "COc1cc(C)c2[nH]c3c(c(=O)c2c1)CN(CC(=O)Nc1ccc2c(c1)OCO2)CC3", "% Inhibition": 12}, {"smiles": "O=C1CCCC1C1COCCN1Cc1ncsc1Br", "note": "(stereo not drawn)", "% Inhibition": 9}, {"smiles": "COc1ccc(CNC(=N)NS(=O)(=O)c2ccc(OC)c(OC)c2)c(OC)c1", "% Inhibition": 2}, {"smiles": "O=C(NCc1cc(F)cc(F)c1)c1csc(C(=O)NC2CC2)n1", "% Inhibition": -6}, {"smiles": "CCC(CC)C(=O)c1c[nH]c(C(N)=O)c1", "% Inhibition": -12}, {"smiles": "O=C(COc1nnc2ccccn12)NC1CCCCCC1", "% Inhibition": -4}, {"smiles": "COc1ccc(C(=O)Nc2nnc([C@H]3CC(=O)N(c4ccc(C)cc4)C3)o2)cc1OC", "% Inhibition": -16}]}]}
